Sequences and labels used below:
B1: LINE1-full (parent)
chain: UACGUAGGUGGUUUUCCCCUGAUAGUGCUAAGGGGGCCUGGAAGUUUGGACUGGGCAGAGCUCAACACAGCGUGGCAAAGUGGCUGUGGCUAGACUGCCUCUCUGGAUUCCUCGUCACUCAGCAGGGCAUCUCUGAGAGAAAUGCC

The source gives no read counts; variants with many changes may rest on few reads.

In this data set the parent is B1. Briefly: self-cleavage, relative activity (ratio to wild type); higher = more cleavage; in vitro, sequencing; the parent is a self-cleaving ribozyme.
On to UACGUAGGUGGUUUUCCCCUGAUAGUGCUAAGGGGGCCUGGAAGUUUGGACUGGGCAGAGCUCAACACAGCGUGGCAAAGUGGCCGUGGCUAGACUGCCUCUCCGGAUUCCUCGCCACUCAGCAGGGCAUCUCUGAGAGAAAUGCC [U85C U104C U115C], for which the self-cleavage is 0.

Take UACGUAGGUGGUUUUCCCCUGAUAGUGCUAAGGGGGCCUGGAAGUUUGGACUGGGCAGAGCUCAACACAGCGUGGCAAAGUGGCUGCGGCUAGACUGCCUCUCUGGAUUCCUUGUCACUCAGCAGGGCACCUCUGAGAGAAAUGCC [U87C C113U U130C]: the self-cleavage turned out to be 0.2.

As to UACGUAGGUGGUUUUCCCCUGAUAGUGCUAAGGGGGCCUGGAAGUUUGGACUGGGCAGAGCUCAACACAGCGUGGCAAAGUGGCUGCGGCUAGACUGCCACUCUGGAUUCCACGUCACUCAGCAGGGCAUCUCCGAGAGAAAUGCC [U87C U100A U112A U134C], the self-cleavage was 0.08.

For UACGUAGGUGGUUUUCCCCUGAUAGUGCUAAGGGGGCCUGGAAGUUUGGACUGGGCAGAGCUCAACACAGCGUGGCAAAGUGGCUGAGGCUAGACUGCCUCUCUGGAUUCCUCGUCACUCAGCAGGGCAACUCAGAGAGAAAUGCC [U87A U130A U134A], the self-cleavage is 0.15.

For the variant UACGUAGGUGGUUUUCCCCUGAUAGUGCUAAGGGGGCCUGGAAGUUUGGACUGGGCAGAGCUCAACACAGCGUGGCAAAGUGGCUGAGGCUAGACUGCCUCUCUGGAUUCCUCGUCACUCGGCAGGGCAUCUCUGAGAGAAGUGCC [U87A A121G A142G], the self-cleavage is 0.1.

For UACGUAGGUGGUUUUCCCCUGAUAGUGCUAAGGGGGCCUGGAAGUUUGGACUGGGCAGAGCUCAACACAGCGUGGCAAAGUGGCUGCGGCUAGACUGUCUCUCUGGGUUCCUCGUCACUCAGCAGGGCAUCUCUGGGAGAAAUGCC [U87C C98U A107G A136G], the self-cleavage worked out at 0.

As for UACGUAGGUGGUUUUCCCCUGAUAGUGCUAAGGGGGCCUGGAAGUUUGGACUGGGCAGAGCUCAACACAGCGUGGCAAAGUGGCUGAGGCUAGACCGCCUCUCUGGACUCCUCGUCACUCAGCAGGGCAUCUCUGAGAGGAAUGCC [U87A U96C U108C A140G], the self-cleavage came to 0.15.

As for UACGUAGGUGGUUUUCCCCUGAUAGUGCUAAGGGGGCCUGGAAGUUUGGACUGGGCAGAGCUCAACACAGCGUGGCAAAGUGGCUAUGGCUAGACUGCCUCUCUGGAUUCCUCGUCACUCAGCAGGGCGUCUCUGAGAGAGAUGCC [G86A A129G A141G], the self-cleavage is 0.26.

Take UACGUAGGUGGUUUUCCCCUGAUAGUGCUAAGGGGGCCUGGAAGUUUGGACUGGGCAGAGCUCAACACAGCGUGGCAAAGUGGCUGCGGCUGGACUGCCUCUCUGGAUUCCUCGUCACUCAGCAGGGCAUCUCUGAGGGAAAUGCC [U87C A92G A138G]: the self-cleavage came out at 0.12.

Turning to UACGUAGGUGGUUUUCCCCUGAUAGUGCUAAGGGGGCCUGGAAGUUUGGACUGGGCAGAGCUCAACACAGCGUGGCAAAGUGGCCGUGGCUAGACUGCCUCUCUGGAUUCCUCGUCACGCAGCAGGGCAUCUCUGUGAGAAAUGCC [U85C U119G A136U], the self-cleavage was 0.08.

As for UACGUAGGUGGUUUUCCCCUGAUAGUGCUAAGGGGGCCUGGAAGUUUGGACUGGGCAGAGCUCAACACAGCGUGGCAAAGUGGCGGUGGCUAGACUGCCUCUCUGGAUCCCUCGUCACUCAGCAGGGCACCUCUGAGAGGAAUGCC [U85G U109C U130C A140G], the self-cleavage was 0.

On to UACGUAGGUGGUUUUCCCCUGAUAGUGCUAAGGGGGCCUGGAAGUUUGGACUGGGCAGAGCUCAACACAGCGUGGCAAAGUGGCUAUGGCUAGACUGCCUCUCUGGAUUCCUCGUCACUCAGCGGGGCAUCUCUGGGAGAAAUGCC [G86A A124G A136G], for which the self-cleavage was determined as 0.06.

Consider UACGUAGGUGGUUUUCCCCUGAUAGUGCUAAGGGGGCCUGGAAGUUUGGACUGGGCAGAGCUCAACACAGCGUGGCAAAGUGGCUGCGGCUAGACUGCCUCUCUGGAUUCCUCGUCACUCAGCACGGCAUCUCUGAGAGAAGUGCC [U87C G125C A142G], for which the self-cleavage was 0.

Consider UACGUAGGUGGUUUUCCCCUGAUAGUGCUAAGGGGGCCUGGAAGUUUGGACUGGGCAGAGCUCAACACAGCGUGGCAAAGUGGCCGUGGCUAGACUGCCUCUCUGGAUUCCUCGCCACUCAGCAGGGCAUCUCUGAGGGAAAUGCC [U85C U115C A138G], for which the self-cleavage was determined as 0.

Consider UACGUAGGUGGUUUUCCCCUGAUAGUGCUAAGGGGGCCUGGAAGUUUGGACUGGGCAGAGCUCAACACAGCGUGGCAAAGUGGCUGCGGCUAGACUGCCUCUCUGGAUUCCUAGUCACUCAGCAGGGCAUCCCUGAGAGAAAUGCC [U87C C113A U132C], for which the self-cleavage stood at 0.06.

On to UACGUAGGUGGUUUUCCCCUGAUAGUGCUAAGGGGGCCUGGAAGUUUGGACUGGGCAGAGCUCAACACAGCGUGGCAAAGUGGCUAUGGCUAGACUGCCUCUCUGGAUUCCUCGUCACCCUGCAGGGCAUCUCUGAGAGAAAUGCC [G86A U119C A121U], for which the self-cleavage came to 0.09.

For the variant UACGUAGGUGGUUUUCCCCUGAUAGUGCUAAGGGGGCCUGGAAGUUUGGACUGGGCAGAGCUCAACACAGCGUGGCAAAGUGGCGGUGGCUAGACUGCCUCUCUGGAUUCCUCGUCACUCUGCAGGGCAUCUCUGAGGGUAGUGCC [U85G A121U A138G A140U A142G], the self-cleavage worked out at 0.

UACGUAGGUGGUUUUCCCCUGAUAGUGCUAAGGGGGCCUGGAAGUUUGGACUGGGCAGAGCUCAACACAGCGUGGCAAAGUGGCUGCGGCUAGACUGCCUCUCUGGAUUCCUCGUCACUCAGCUGGGCAUCUCCGUGAGAAAUGCC [U87C A124U U134C A136U]: the self-cleavage was 0.24.

Regarding UACGUAGGUGGUUUUCCCCUGAUAGUGCUAAGGGGGCCUGGAAGUUUGGACUGGGCAGAGCUCAACACAGCGUGGCAAAGUGGCUGCGGCUAGGCUGCCUGUCUGGAUUCCUCGUCACUCAGCAGGGCAUCUCUGAGAGAAAUGCC [U87C A94G C101G], the self-cleavage is 0.

On to UACGUAGGUGGUUUUCCCCUGAUAGUGCUAAGGGGGCCUGGAAGUUUGGACUGGGCAGAGCUCAACACAGCGUGGCAAAGUGGCUGAGGCUAGACCGCCUCUCUGGAUUCCUCGUCACUCAGCAGGGCAUCUCUGAGAGUAAUGCC [U87A U96C A140U], for which the self-cleavage is 0.09.

For the origin of these results see the RNAGym collection of RNA variant scans (doi:10.7554/elife.90254).
